# The list shows a part of the results.
# B1: Cohesin-mDCIR (Macaca mulatta) (protein)
# chain: GLDDLDAVRIKVDTVNAKPGDTVRIPVRFSGIPSKGIANCDFVYSYDPNVLEIIEIEPGDIIVDPNPDKSFDTAVYPDRKIIVFLFAEDSGTGAYAITKDGVFATIVAKVKEGAPNGLSVIKFVEVGGFANNDLVEQKTQFFDGGVNVGDTTEPATPTTPVTTPTTTDDLDAASFQKYSQLLEKMTTKDLVHTTLECVKKNMTTEETAWSCCPKNWKPFSSNCYFISTESASWQKSEKDCARMEAHLLVINTREEQDFIFQNLQEESAYFVGLSDPEGQRHWQWVDRTPYNESSTFWHPHEPSDPDERCVVLNFRKTPKRWGWNDVHCIVHQRSVCEMMKIHLHHHHHH
# Key:
# [1] = target: Neu5Gc(a2-8)Neu5Gc(a2-6)Gal(b1-4)GlcNAc; experiment: glycan array binding signal (z-score within array); higher = stronger binding; conditions: glycan notation: IUPAC condensed, linker removed
# Summary of the method: (§1)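 Negative Z-scores can be read as non-binding. The Z-score is calculated within each array and then averaged across arrays of one protein sequence at different concentrations or buffers and across linkers. Arrays, 3228 in all, were curated from the Consortium for Functional Glycomics database and kept only where the protein sequence was available.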
# [2] = target: Neu5Gc(b2-6)Gal(b1-4)GlcNAc; experiment: as above; conditions: glycan notation: IUPAC condensed, linker removed
# Summary of the method: as §1
binder,measurement,setting,value
B1,glycan array binding signal (z-score),[1],-0.402
same,glycan array binding signal (z-score),[2],-0.351
